# Source: the supplement of paper PMC8728848
# Some of the results follow.
# Legend:
# Test in all cases: glycan array binding signal (z-score within array); higher = stronger binding
# Details in all cases: glycan notation: IUPAC condensed, linker removed
# [1] = target: Man(a1-2)Man(a1-3)[Man(a1-6)]Man(a1-6)[Man(a1-2)Man(a1-3)]Man(b1-4)GlcNAc(b1-4)GlcNAc
# How it was run: (§1)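 From the Consortium for Functional Glycomics database, 3228 arrays were curated, keeping only those whose protein sequence was available. Binding is given as a within-array Z-score averaged across arrays sharing a protein sequence and across linkers. Negative Z-scores can be read as non-binding.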
# [2] = target: Man(a1-2)Man(a1-6)[Man(a1-3)]Man(a1-6)[Man(a1-2)Man(a1-2)Man(a1-3)]Man
# How it was run: as §1
# [3] = target: Man(a1-2)Man(a1-6)[Man(a1-3)]Man(a1-6)[Man(a1-2)Man(a1-2)Man(a1-3)]Man(b1-4)GlcNAc(b1-4)GlcNAc
# How it was run: as §1
# [4] = target: Man(a1-3)[Man(a1-6)]Man
# How it was run: as §1
# [5] = target: Man(a1-3)[Man(a1-6)]Man(a1-6)[Man(a1-2)Man(a1-3)]Man(b1-4)GlcNAc(b1-4)GlcNAc
# How it was run: as §1
# [6] = target: Man(a1-3)[Man(a1-6)]Man(a1-6)[Man(a1-3)]Man
# How it was run: as §1
# [7] = target: Man(a1-3)[Man(a1-6)]Man(a1-6)[Man(a1-3)]Man(b1-4)GlcNAc(b1-4)GlcNAc
# How it was run: as §1
# [8] = target: Man(a1-3)[Man(a1-6)]Man(b1-4)GlcNAc(b1-4)GlcNAc
# How it was run: as §1
# [9] = target: Man(a1-3)[Man(a1-6)]Man(b1-4)GlcNAc(b1-4)[Fuc(a1-6)]GlcNAc
# How it was run: as §1
# [10] = target: Man(a1-6)Man
# How it was run: as §1
# [11] = target: Man(b1-4)GlcNAc
# How it was run: as §1
# [12] = target: Neu5Ac(a2-3)Gal
# How it was run: as §1
# [13] = target: Neu5Ac(a2-3)Gal(b1-3)GalNAc
# How it was run: as §1
# [14] = target: Neu5Ac(a2-3)Gal(b1-3)GalNAc(b1-3)Gal(a1-4)Gal(b1-4)Glc
# How it was run: as §1
# [15] = target: Neu5Ac(a2-3)Gal(b1-3)GalNAc(b1-3)Gal(b1-4)GlcNAc
# How it was run: as §1
# [16] = target: Neu5Ac(a2-3)Gal(b1-3)GalNAc(b1-4)[Neu5Ac(a2-3)]Gal(b1-4)Glc
# How it was run: as §1
# [17] = target: Neu5Ac(a2-3)Gal(b1-3)GalNAc(b1-4)[Neu5Ac(a2-8)Neu5Ac(a2-3)]Gal(b1-4)Glc
# How it was run: as §1
# [18] = target: Neu5Ac(a2-3)Gal(b1-3)GalNAc6S
# How it was run: as §1
# [19] = target: Neu5Ac(a2-3)Gal(b1-3)GlcNAc
# How it was run: as §1
# [20] = target: Neu5Ac(a2-3)Gal(b1-3)GlcNAc(b1-2)Man(a1-3)[GlcNAc(b1-4)][Neu5Ac(a2-3)Gal(b1-3)GlcNAc(b1-2)Man(a1-6)]Man(b1-4)GlcNAc(b1-4)GlcNAc
# How it was run: as §1
# [21] = target: Neu5Ac(a2-3)Gal(b1-3)GlcNAc(b1-3)Gal(b1-3)GlcNAc
# How it was run: as §1
# [22] = target: Neu5Ac(a2-3)Gal(b1-3)GlcNAc(b1-3)Gal(b1-4)GlcNAc
# How it was run: as §1
# [23] = target: Neu5Ac(a2-3)Gal(b1-3)GlcNAc(b1-3)GalNAc
# How it was run: as §1
# [24] = target: Neu5Ac(a2-3)Gal(b1-3)GlcNAc(b1-6)GalNAc
# How it was run: as §1
# [25] = target: Neu5Ac(a2-3)Gal(b1-3)GlcNAc6S
# How it was run: as §1
# [26] = target: Neu5Ac(a2-3)Gal(b1-3)[Fuc(a1-4)]GlcNAc
# How it was run: as §1
# [27] = target: Neu5Ac(a2-3)Gal(b1-3)[Fuc(a1-4)]GlcNAc(b1-3)Gal(b1-3)[Fuc(a1-4)]GlcNAc
# How it was run: as §1
# [28] = target: Neu5Ac(a2-3)Gal(b1-3)[Fuc(a1-4)]GlcNAc(b1-3)Gal(b1-4)[Fuc(a1-3)]GlcNAc
# How it was run: as §1
# [29] = target: Neu5Ac(a2-3)Gal(b1-3)[Neu5Ac(a2-3)Gal(b1-4)]GlcNAc
# How it was run: as §1
# [30] = target: Neu5Ac(a2-3)Gal(b1-3)[Neu5Ac(a2-6)]GalNAc
# How it was run: as §1
# [31] = target: Neu5Ac(a2-3)Gal(b1-3)[Neu5Ac(a2-6)]GlcNAc(b1-3)[Fuc(a1-3)[Gal(b1-4)]GlcNAc(b1-6)]Gal(b1-4)Glc
# How it was run: as §1
# [32] = target: Neu5Ac(a2-3)Gal(b1-4)Glc
# How it was run: as §1
# [33] = target: Neu5Ac(a2-3)Gal(b1-4)GlcNAc
# How it was run: as §1
# [34] = target: Neu5Ac(a2-3)Gal(b1-4)GlcNAc(b1-2)Man
# How it was run: as §1
# [35] = target: Neu5Ac(a2-3)Gal(b1-4)GlcNAc(b1-2)Man(a1-3)[GlcNAc(b1-2)Man(b1-4)GlcNAc(b1-2)Man(a1-6)]Man(b1-4)GlcNAc(b1-4)GlcNAc
# How it was run: as §1
# [36] = target: Neu5Ac(a2-3)Gal(b1-4)GlcNAc(b1-2)Man(a1-3)[Neu5Ac(a2-3)Gal(b1-4)GlcNAc(b1-2)Man(a1-6)]Man(b1-4)GlcNAc(b1-4)[Fuc(a1-6)]GlcNAc
# How it was run: as §1
# [37] = target: Neu5Ac(a2-3)Gal(b1-4)GlcNAc(b1-2)Man(a1-3)[Neu5Ac(a2-6)Gal(b1-4)GlcNAc(b1-2)Man(a1-6)]Man(b1-4)GlcNAc(b1-4)GlcNAc
# How it was run: as §1
# [38] = target: Neu5Ac(a2-3)Gal(b1-4)GlcNAc(b1-2)[Neu5Ac(a2-3)Gal(b1-4)GlcNAc(b1-6)]Man(a1-6)[Neu5Ac(a2-3)Gal(b1-4)GlcNAc(b1-2)Man(a1-3)]Man(b1-4)GlcNAc(b1-4)GlcNAc
# How it was run: as §1
# [39] = target: Neu5Ac(a2-3)Gal(b1-4)GlcNAc(b1-3)Gal
# How it was run: as §1
binder,measurement,setting,value
"Calsepa (Calystegia sepium), P93114 (protein) MAVPMDTISGPWGNNGGNFWSFRPVNKINQIVISYGGGGNNPIALTFSSTKADGSKDTITVGGGGPDSITGTEMVNIGTDEYLTGISGTFGIYLDNNVLRSITFTTNLKAHGPYGQKVGTPFSSANVVGNEIVGFLGRSGYYVDAIGTYNRHK",glycan array binding signal (z-score),[1],-0.239
same,glycan array binding signal (z-score),[2],-0.239
same,glycan array binding signal (z-score),[3],-0.242
same,glycan array binding signal (z-score),[4],-0.244
same,glycan array binding signal (z-score),[5],0.764
same,glycan array binding signal (z-score),[6],-0.185
same,glycan array binding signal (z-score),[7],0.986
same,glycan array binding signal (z-score),[8],3.5
same,glycan array binding signal (z-score),[9],0.063
same,glycan array binding signal (z-score),[10],-0.251
same,glycan array binding signal (z-score),[11],-0.253
same,glycan array binding signal (z-score),[12],-0.245
same,glycan array binding signal (z-score),[13],-0.247
same,glycan array binding signal (z-score),[14],-0.241
same,glycan array binding signal (z-score),[15],-0.172
same,glycan array binding signal (z-score),[16],-0.252
same,glycan array binding signal (z-score),[17],-0.274
same,glycan array binding signal (z-score),[18],-0.246
same,glycan array binding signal (z-score),[19],-0.242
same,glycan array binding signal (z-score),[20],0.993
same,glycan array binding signal (z-score),[21],-0.243
same,glycan array binding signal (z-score),[22],-0.276
same,glycan array binding signal (z-score),[23],-0.266
same,glycan array binding signal (z-score),[24],-0.271
same,glycan array binding signal (z-score),[25],-0.247
same,glycan array binding signal (z-score),[26],-0.247
same,glycan array binding signal (z-score),[27],-0.242
same,glycan array binding signal (z-score),[28],-0.236
same,glycan array binding signal (z-score),[29],-0.251
same,glycan array binding signal (z-score),[30],-0.237
same,glycan array binding signal (z-score),[31],-0.272
same,glycan array binding signal (z-score),[32],-0.247
same,glycan array binding signal (z-score),[33],-0.248
same,glycan array binding signal (z-score),[34],-0.255
same,glycan array binding signal (z-score),[35],-0.13
same,glycan array binding signal (z-score),[36],-0.267
same,glycan array binding signal (z-score),[37],-0.087
same,glycan array binding signal (z-score),[38],-0.055
same,glycan array binding signal (z-score),[39],-0.272
